By IC50 is meant the dose at which the fit gives 50% viability; a limit (>, <) means that the fit lies beyond the doses tested. AUC is the area under the same curve over the 256-fold range up to the top dose, as a fraction; values near 1 show little effect. For some assays here: The top dose, if marked as inferred, was calculated from the reported fits.
Tests used:
Experiment in all cases: Viability of human cancer cell lines after 72 h of drug (GDSC screen)
[1] = compound: CC(=O)Nc1cccc(-n2c(=O)n(C3CC3)c(=O)c3c(Nc4ccc(I)cc4F)n(C)c(=O)c(C)c32)c1 [Trametinib]; conditions: top dose 1 µM
Description: (§1)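 Human cancer cell lines in 384-well plates, medium with 10% serum, drug for 72 h over a 256-fold dose range (nine 2-fold or five 4-fold steps up to the top dose). Adherent lines were fixed and stained with the nucleic acid dye Syto60, suspension lines read with resazurin; signal relative to control wells, capped at 0 and 100%. One two-parameter sigmoid per drug and line, fitted in a mixed model over all curves with the slope shared within a line.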

[2] = compound: CCN1CCN(Cc2ccc(NC(=O)c3ccc(C)c(/C=C/c4cnc5[nH]ccc5c4OC)c3)cc2C(F)(F)F)CC1 [HG-6-64-1]; conditions: top dose 5.12 µM; top dose inferred
Description: as §1

[3] = compound: CCNC(=O)C[C@@H]1N=C(c2ccc(Cl)cc2)c2cc(OC)ccc2-n2c(C)nnc21 [I-BET-762]; conditions: top dose 20 µM; top dose inferred
Description: as §1

[4] = compound: CCc1cncnc1N1CCN(Cc2nc3ccc(C(F)(F)F)cc3[nH]2)CC1 [PF-4708671]; conditions: top dose 10 µM; top dose inferred
Description: as §1

[5] = compound: COc1cc2nccc(Oc3ccc(NC(=O)Nc4cc(C)on4)c(Cl)c3)c2cc1OC [AV-951]; conditions: top dose 0.128 µM; top dose inferred
Description: as §1

[6] = compound: Nc1ccccc1NC(=O)c1ccc(CNC(=O)OCc2cccnc2)cc1 [MS-275]; conditions: top dose 5 µM; top dose inferred
Description: as §1

[7] = compound: O=C(NC(COc1ccc2[nH]c(=O)[nH]c2c1)c1ccccc1)c1cccn(Cc2ccc(F)c(F)c2)c1=O [KIN001-244]; conditions: top dose 20 µM; top dose inferred
Description: as §1

Row | Cell Line | AUC [1] | IC50 [1] [µM] | AUC [2] | IC50 [2] [µM] | AUC [3] | IC50 [3] [µM] | AUC [4] | IC50 [4] [µM] | AUC [5] | IC50 [5] [µM] | AUC [6] | IC50 [6] [µM] | AUC [7] | IC50 [7] [µM]
1 | D-502MG (glioma, adherent) | 0.531 | 0.0792 | 0.898 | > 5.12 | 0.945 | > 20 | 0.96 | > 10 | 0.968 | > 0.128 | 0.811 | 4.79 | 0.935 | > 20
2 | D-542MG (glioma, adherent) | 0.901 | > 1 | 0.8 | 3.13 | 0.778 | 10 | 0.974 | > 10 | 0.982 | > 0.128 | 0.76 | 2.12 | 0.842 | 18.8
3 | DEL (lymphoid neoplasm, suspension) | 0.969 | > 1 | 0.823 | 2.22 | 0.904 | 16.6 | 0.99 | > 10 | 0.989 | > 0.128 | 0.519 | 0.349 | 0.891 | 14.7
4 | DG-75 (Burkitt lymphoma, suspension) | 0.953 | > 1 | 0.896 | > 5.12 | 0.832 | 13 | 0.897 | > 10 | 0.987 | > 0.128 | 0.782 | 2.12 | 0.917 | > 20
5 | DJM-1 (skin, adherent) | 0.743 | 0.307 | 0.958 | > 5.12 | 0.986 | > 20 | 0.961 | > 10 | 0.987 | > 0.128 | 0.826 | 2.99 | 0.864 | 17.2
6 | DMS-79 (small cell lung carcinoma, suspension) | 0.981 | > 1 | 0.98 | > 5.12 | 0.926 | > 20 | 0.943 | > 10 | 0.982 | > 0.128 | 0.774 | 2.3 | 0.915 | > 20
7 | DMS-114 (small cell lung carcinoma, adherent) | 0.79 | 0.521 | 0.934 | > 5.12 | 0.797 | 11 | 0.945 | > 10 | 0.979 | > 0.128 | 0.974 | > 5 | 0.923 | > 20
8 | DND-41 (T-cell leukaemia, suspension) | 0.542 | 0.08 | 0.82 | 2.5 | 0.464 | 1.01 | 0.99 | > 10 | 0.976 | > 0.128 | 0.617 | 0.627 | 0.842 | 11.7
9 | DSH1 (bladder, adherent) | 0.859 | 0.774 | 0.887 | > 5.12 | 0.871 | 17.4 | 0.851 | 7.14 | 0.989 | > 0.128 | 0.537 | 0.391 | 0.937 | > 20
10 | DU-4475 (breast, suspension) | 0.025 | < 0.00391 | 0.746 | 1.37 | 0.793 | 7.32 | 0.923 | > 10 | 0.985 | > 0.128 | 0.624 | 0.639 | 0.879 | 14.1
11 | Daudi (Burkitt lymphoma, suspension) | 0.989 | > 1 | 0.383 | 0.16 | 0.844 | 11.7 | 0.946 | > 10 | 0.985 | > 0.128 | 0.676 | 0.898 | 0.89 | 17.8
12 | EB2 (Burkitt lymphoma, suspension) | 0.989 | > 1 | 0.478 | 0.281 | 0.888 | 18.8 | 0.979 | > 10 | 0.925 | > 0.128 | 0.967 | > 5 | 0.752 | 6.08
13 | EB-3 (Burkitt lymphoma, suspension) | 0.975 | > 1 | 0.698 | 1.28 | 0.926 | > 20 | 0.961 | > 10 | 0.97 | > 0.128 | 0.848 | 4.67 | 0.773 | 9.07
14 | EC-GI-10 (oesophagus, adherent) | 0.283 | 0.0153 | 0.986 | > 5.12 | 0.985 | > 20 | 0.964 | > 10 | 0.989 | > 0.128 | 0.986 | > 5 | 0.908 | > 20
15 | EJM (lymphoid neoplasm, semi-adherent) | 0.986 | > 1 | 0.951 | > 5.12 | 0.84 | 10.7 | 0.986 | > 10 | 0.992 | > 0.128 | 0.76 | 1.51 | 0.826 | 9.62
16 | EKVX (lung adenocarcinoma, adherent) | 0.635 | 0.225 | 0.934 | > 5.12 | 0.957 | > 20 | 0.948 | > 10 | 0.97 | > 0.128 | 0.764 | 4.67 | 0.936 | > 20

Row | Cell Line | AUC [1] | IC50 [1] [µM] | AUC [2] | IC50 [2] [µM] | AUC [3] | IC50 [3] [µM] | AUC [4] | IC50 [4] [µM] | AUC [5] | IC50 [5] [µM] | AUC [6] | IC50 [6] [µM] | AUC [7] | IC50 [7] [µM]
17 | EM-2 (chronic myeloid leukaemia, suspension) | 0.271 | 0.0127 | 0.23 | 0.0465 | 0.712 | 5.41 | 0.973 | > 10 | 0.812 | 0.0802 | 0.45 | 0.223 | 0.79 | 10.3
18 | ES1 (Ewing sarcoma, adherent) | 0.985 | > 1 | 0.858 | 4.1 | 0.91 | > 20 | 0.975 | > 10 | 0.939 | > 0.128 | 0.902 | > 5 | 0.737 | 5.88
19 | ES5 (Ewing sarcoma, adherent) | 0.971 | > 1 | 0.741 | 1.76 | 0.781 | 9.59 | 0.93 | > 10 | 0.977 | > 0.128 | 0.94 | > 5 | 0.807 | 12.1
20 | ES6 (Ewing sarcoma, adherent) | 0.939 | > 1 | 0.714 | 1.51 | 0.937 | > 20 | 0.974 | > 10 | 0.979 | > 0.128 | 0.677 | 1.11 | 0.891 | > 20
21 | ES7 (Ewing sarcoma, adherent) | 0.926 | > 1 | 0.701 | 1.2 | 0.763 | 7.38 | 0.928 | > 10 | 0.912 | > 0.128 | 0.782 | 2.16 | 0.596 | 2.31
22 | ES8 (Ewing sarcoma, adherent) | 0.966 | > 1 | 0.869 | 4.15 | 0.756 | 6.4 | 0.957 | > 10 | 0.979 | > 0.128 | 0.515 | 0.342 | 0.763 | 6.7
23 | ES-2 (ovary, adherent) | 0.113 | 0.00446 | 0.92 | > 5.12 | 0.947 | > 20 | 0.902 | > 10 | 0.991 | > 0.128 | 0.872 | 3.8 | 0.79 | 7.75
24 | ETK-1 (biliary tract, adherent) | 0.823 | 0.697 | 0.786 | 2.53 | 0.93 | > 20 | 0.959 | > 10 | 0.98 | > 0.128 | 0.682 | 1.08 | 0.863 | > 20
25 | EVSA-T (breast, adherent) | 0.981 | > 1 | 0.983 | > 5.12 | 0.626 | 2.63 | 0.96 | > 10 | 0.991 | > 0.128 | 0.74 | 1.34 | 0.712 | 4.47
26 | EW-1 (Ewing sarcoma, semi-adherent) | 0.987 | > 1 | 0.77 | 1.8 | 0.815 | 9.85 | 0.983 | > 10 | 0.988 | > 0.128 | 0.83 | 2.79 | 0.814 | 9.76
27 | EW-3 (Ewing sarcoma, adherent) | 0.933 | > 1 | 0.956 | > 5.12 | 0.822 | 13.9 | 0.984 | > 10 | 0.964 | > 0.128 | 0.923 | > 5 | 0.705 | 5.18
28 | EW-11 (Ewing sarcoma, adherent) | 0.865 | > 1 | 0.743 | 1.98 | 0.912 | > 20 | 0.975 | > 10 | 0.976 | > 0.128 | 0.918 | > 5 | 0.737 | 7.36
29 | EW-13 (Ewing sarcoma, suspension) | 0.984 | > 1 | 0.642 | 0.826 | 0.712 | 5.33 | 0.986 | > 10 | 0.973 | > 0.128 | 0.973 | > 5 | 0.643 | 3.26
30 | EW-16 (Ewing sarcoma, adherent) | 0.875 | > 1 | 0.584 | 0.548 | 0.89 | > 20 | 0.963 | > 10 | 0.974 | > 0.128 | 0.724 | 1.4 | 0.858 | 17.5
31 | EW-18 (Ewing sarcoma, suspension) | 0.975 | > 1 | 0.894 | > 5.12 | 0.785 | 9.17 | 0.967 | > 10 | 0.981 | > 0.128 | 0.885 | > 5 | 0.742 | 6.52
